# Experimental data as given in the supplement of paper PMC8728848.
# Some of the results follow.
# B1: Langerin K313I (Homo sapiens), Q9UJ71 (protein)
# chain: STLNAQIPELKSDLEKASALNTKIRALQGSLENMSKLLKRQNDILQVVSQGWKYFKGNFYYFSLIPKTWYSAEQFCVSRNSHLTSVTSESEQEFLYKTAGGLIYWIGLTKAGMEGDWSWVDDTPFNKVQSARFWIPGEPNNAGNNEHCGNIKAPSLQAWNDAPCDITFLFICKRPYVPSEP
# Columns and labels:
# Test in all cases: glycan array binding signal (z-score within array); higher = stronger binding
# Conditions in all cases: glycan notation: IUPAC condensed, linker removed
# [1] = molecular target: Gal(b1-3)GlcNAc(b1-6)[Gal(b1-3)]GalNAc
# Summary of the method: (§1)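 Columns mapping to the same glycan were averaged after glycan names were converted to IUPAC-condensed notation. The data come from 3228 arrays in the Consortium for Functional Glycomics database, limited to those with an available protein sequence. Binding is reported as a within-array Z-score averaged across arrays of one protein sequence and across linkers.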
# Gal(b1-3)GlcNAc6S = molecular target: Gal(b1-3)GlcNAc6S
# Summary of the method: as §1
# [2] = molecular target: Gal(b1-3)[Fuc(a1-4)]GlcNAc
# Summary of the method: as §1
# [3] = molecular target: Gal(b1-3)[Fuc(a1-4)]GlcNAc(b1-2)Man
# Summary of the method: as §1
# [4] = molecular target: Gal(b1-3)[Fuc(a1-4)]GlcNAc(b1-2)Man(a1-3)[Gal(b1-3)[Fuc(a1-4)]GlcNAc(b1-2)Man(a1-6)]Man(b1-4)GlcNAc(b1-4)[Fuc(a1-6)]GlcNAc
# Summary of the method: as §1
# [5] = molecular target: Gal(b1-3)[Fuc(a1-4)]GlcNAc(b1-3)Gal(b1-3)[Fuc(a1-4)]GlcNAc
# Summary of the method: as §1
# [6] = molecular target: Gal(b1-3)[Fuc(a1-4)]GlcNAc(b1-3)Gal(b1-4)[Fuc(a1-3)]GlcNAc
# Summary of the method: as §1
# [7] = molecular target: Gal(b1-3)[Fuc(a1-4)]GlcNAc(b1-6)GalNAc
# Summary of the method: as §1
# [8] = molecular target: Gal(b1-3)[GlcNAc(b1-6)]GalNAc
# Summary of the method: as §1
# [9] = molecular target: Gal(b1-3)[Neu5Ac(a2-6)]GalNAc
# Summary of the method: as §1
# [10] = molecular target: Gal(b1-3)[Neu5Ac(a2-6)]GlcNAc(b1-4)Gal(b1-4)Glc
# Summary of the method: as §1
# [11] = molecular target: Gal(b1-3)[Neu5Ac(b2-6)]GalNAc
# Summary of the method: as §1
# Gal(b1-4)Gal = molecular target: Gal(b1-4)Gal
# Summary of the method: as §1
# [12] = molecular target: Gal(b1-4)GalNAc(a1-3)[Fuc(a1-2)]Gal(b1-4)GlcNAc
# Summary of the method: as §1
# [13] = molecular target: Gal(b1-4)GalNAc(b1-3)[Fuc(a1-2)]Gal(b1-4)GlcNAc
# Summary of the method: as §1
# Gal(b1-4)Glc = molecular target: Gal(b1-4)Glc
# Summary of the method: as §1
# Gal(b1-4)Glc6S = molecular target: Gal(b1-4)Glc6S
# Summary of the method: as §1
# Gal(b1-4)GlcNAc = molecular target: Gal(b1-4)GlcNAc
# Summary of the method: as §1
# [14] = molecular target: Gal(b1-4)GlcNAc(a1-6)Gal(b1-4)GlcNAc
# Summary of the method: as §1
# Gal(b1-4)GlcNAc(b1-2)Man = molecular target: Gal(b1-4)GlcNAc(b1-2)Man
# Summary of the method: as §1
# [15] = molecular target: Gal(b1-4)GlcNAc(b1-2)Man(a1-3)Man(b1-4)GlcNAc(b1-4)GlcNAc
# Summary of the method: as §1
# [16] = molecular target: Gal(b1-4)GlcNAc(b1-2)Man(a1-3)[Gal(b1-4)GlcNAc(b1-2)Man(a1-6)]Man(b1-4)GlcNAc(b1-4)GlcNAc
# Summary of the method: as §1
# [17] = molecular target: Gal(b1-4)GlcNAc(b1-2)Man(a1-3)[Gal(b1-4)GlcNAc(b1-2)Man(a1-6)]Man(b1-4)GlcNAc(b1-4)[Fuc(a1-6)]GlcNAc
# Summary of the method: as §1
# [18] = molecular target: Gal(b1-4)GlcNAc(b1-2)Man(a1-3)[Gal(b1-4)GlcNAc(b1-2)Man(a1-6)][Gal(b1-4)GlcNAc(b1-4)]Man(b1-4)GlcNAc(b1-4)[Fuc(a1-6)]GlcNAc
# Summary of the method: as §1
# [19] = molecular target: Gal(b1-4)GlcNAc(b1-2)Man(a1-3)[Gal(b1-4)GlcNAc(b1-2)Man(a1-6)][GlcNAc(b1-4)]Man(b1-4)GlcNAc(b1-4)[Fuc(a1-6)]GlcNAc
# Summary of the method: as §1
# [20] = molecular target: Gal(b1-4)GlcNAc(b1-2)Man(a1-3)[GlcNAc(b1-2)Man(a1-6)]Man(b1-4)GlcNAc(b1-4)GlcNAc
# Summary of the method: as §1
# [21] = molecular target: Gal(b1-4)GlcNAc(b1-2)Man(a1-3)[GlcNAc(b1-4)][Gal(b1-4)GlcNAc(b1-2)Man(a1-6)]Man(b1-4)GlcNAc(b1-4)GlcNAc
# Summary of the method: as §1
# [22] = molecular target: Gal(b1-4)GlcNAc(b1-2)Man(a1-3)[Man(a1-6)]Man(b1-4)GlcNAc(b1-4)GlcNAc
# Summary of the method: as §1
# [23] = molecular target: Gal(b1-4)GlcNAc(b1-2)Man(a1-6)Man(b1-4)GlcNAc(b1-4)GlcNAc
# Summary of the method: as §1
# [24] = molecular target: Gal(b1-4)GlcNAc(b1-2)Man(a1-6)[GlcNAc(b1-2)Man(a1-3)]Man(b1-4)GlcNAc(b1-4)GlcNAc
# Summary of the method: as §1
# [25] = molecular target: Gal(b1-4)GlcNAc(b1-2)Man(a1-6)[Man(a1-3)]Man(b1-4)GlcNAc(b1-4)GlcNAc
# Summary of the method: as §1
# [26] = molecular target: Gal(b1-4)GlcNAc(b1-2)[Gal(b1-4)GlcNAc(b1-4)]Man(a1-3)[Gal(b1-4)GlcNAc(b1-2)Man(a1-6)]Man(b1-4)GlcNAc(b1-4)GlcNAc
# Summary of the method: as §1
# [27] = molecular target: Gal(b1-4)GlcNAc(b1-2)[Gal(b1-4)GlcNAc(b1-4)]Man(a1-3)[Gal(b1-4)GlcNAc(b1-2)[Gal(b1-4)GlcNAc(b1-6)]Man(a1-6)]Man(b1-4)GlcNAc(b1-4)GlcNAc
# Summary of the method: as §1
# [28] = molecular target: Gal(b1-4)GlcNAc(b1-2)[Gal(b1-4)GlcNAc(b1-4)]Man(a1-3)[GlcNAc(b1-4)][Gal(b1-4)GlcNAc(b1-2)Man(a1-6)]Man(b1-4)GlcNAc(b1-4)GlcNAc
# Summary of the method: as §1
# [29] = molecular target: Gal(b1-4)GlcNAc(b1-2)[Gal(b1-4)GlcNAc(b1-4)]Man(a1-3)[GlcNAc(b1-4)][Gal(b1-4)GlcNAc(b1-2)[Gal(b1-4)GlcNAc(b1-6)]Man(a1-6)]Man(b1-4)GlcNAc(b1-4)GlcNAc
# Summary of the method: as §1
# [30] = molecular target: Gal(b1-4)GlcNAc(b1-2)[Gal(b1-4)GlcNAc(b1-6)]Man(a1-6)[Gal(b1-4)GlcNAc(b1-2)Man(a1-3)]Man(b1-4)GlcNAc(b1-4)GlcNAc
# Summary of the method: as §1
# [31] = molecular target: Gal(b1-4)GlcNAc(b1-2)[Gal(b1-4)GlcNAc(b1-6)]Man(a1-6)[Gal(b1-4)GlcNAc(b1-2)Man(a1-3)]Man(b1-4)GlcNAc(b1-4)[Fuc(a1-6)]GlcNAc
# Summary of the method: as §1
# [32] = molecular target: Gal(b1-4)GlcNAc(b1-2)[Gal(b1-4)GlcNAc(b1-6)]Man(a1-6)[GlcNAc(b1-4)][Gal(b1-4)GlcNAc(b1-2)Man(a1-3)]Man(b1-4)GlcNAc(b1-4)GlcNAc
# Summary of the method: as §1
# [33] = molecular target: Gal(b1-4)GlcNAc(b1-2)[Gal(b1-4)GlcNAc(b1-6)]Man(a1-6)[GlcNAc(b1-4)][Gal(b1-4)GlcNAc(b1-2)[Gal(b1-4)GlcNAc(b1-4)]Man(a1-3)]Man(b1-4)GlcNAc(b1-4)[Fuc(a1-6)]GlcNAc
# Summary of the method: as §1
# [34] = molecular target: Gal(b1-4)GlcNAc(b1-3)Gal(b1-3)GalNAc
# Summary of the method: as §1
# [35] = molecular target: Gal(b1-4)GlcNAc(b1-3)Gal(b1-3)GlcNAc
# Summary of the method: as §1
# [36] = molecular target: Gal(b1-4)GlcNAc(b1-3)Gal(b1-4)Glc
# Summary of the method: as §1
# [37] = molecular target: Gal(b1-4)GlcNAc(b1-3)Gal(b1-4)GlcNAc
# Summary of the method: as §1
# [38] = molecular target: Gal(b1-4)GlcNAc(b1-3)Gal(b1-4)GlcNAc(b1-2)Man(a1-3)[Gal(b1-4)GlcNAc(b1-3)Gal(b1-4)GlcNAc(b1-2)Man(a1-6)]Man(b1-4)GlcNAc(b1-4)GlcNAc
# Summary of the method: as §1
# [39] = molecular target: Gal(b1-4)GlcNAc(b1-3)Gal(b1-4)GlcNAc(b1-2)Man(a1-3)[Gal(b1-4)GlcNAc(b1-3)Gal(b1-4)GlcNAc(b1-2)Man(a1-6)]Man(b1-4)GlcNAc(b1-4)[Fuc(a1-6)]GlcNAc
# Summary of the method: as §1
binder,measurement,setting,value
B1,glycan array binding signal (z-score),[1],-0.253
same,glycan array binding signal (z-score),Gal(b1-3)GlcNAc6S,-0.395
same,glycan array binding signal (z-score),[2],-0.306
same,glycan array binding signal (z-score),[3],-0.217
same,glycan array binding signal (z-score),[4],0.9
same,glycan array binding signal (z-score),[5],0.067
same,glycan array binding signal (z-score),[6],-0.255
same,glycan array binding signal (z-score),[7],0.164
same,glycan array binding signal (z-score),[8],-0.146
same,glycan array binding signal (z-score),[9],-0.229
same,glycan array binding signal (z-score),[10],-0.356
same,glycan array binding signal (z-score),[11],-0.358
same,glycan array binding signal (z-score),Gal(b1-4)Gal,-0.047
same,glycan array binding signal (z-score),[12],-0.387
same,glycan array binding signal (z-score),[13],-0.382
same,glycan array binding signal (z-score),Gal(b1-4)Glc,-0.178
same,glycan array binding signal (z-score),Gal(b1-4)Glc6S,-0.162
same,glycan array binding signal (z-score),Gal(b1-4)GlcNAc,-0.346
same,glycan array binding signal (z-score),[14],-0.396
same,glycan array binding signal (z-score),Gal(b1-4)GlcNAc(b1-2)Man,-0.209
same,glycan array binding signal (z-score),[15],-0.272
same,glycan array binding signal (z-score),[16],-0.339
same,glycan array binding signal (z-score),[17],0.133
same,glycan array binding signal (z-score),[18],-0.254
same,glycan array binding signal (z-score),[19],-0.323
same,glycan array binding signal (z-score),[20],-0.348
same,glycan array binding signal (z-score),[21],-0.331
same,glycan array binding signal (z-score),[22],-0.258
same,glycan array binding signal (z-score),[23],-0.235
same,glycan array binding signal (z-score),[24],-0.258
same,glycan array binding signal (z-score),[25],-0.237
same,glycan array binding signal (z-score),[26],-0.316
same,glycan array binding signal (z-score),[27],-0.384
same,glycan array binding signal (z-score),[28],-0.319
same,glycan array binding signal (z-score),[29],-0.299
same,glycan array binding signal (z-score),[30],-0.311
same,glycan array binding signal (z-score),[31],0.18
same,glycan array binding signal (z-score),[32],-0.369
same,glycan array binding signal (z-score),[33],-0.325
same,glycan array binding signal (z-score),[34],-0.361
same,glycan array binding signal (z-score),[35],-0.35
same,glycan array binding signal (z-score),[36],-0.335
same,glycan array binding signal (z-score),[37],-0.394
same,glycan array binding signal (z-score),[38],0.326
same,glycan array binding signal (z-score),[39],0.267
